Measurements: patent US5773569A (Affymax Technologies N.V., priority 1995, dated 1998)
Not every detail of the peptide structures is certain; ends, links or a residue may be inferred. Residues, ends and D or L forms follow the SMILES beside them.

Tests used:
[1] = In vitro proliferation assay (equivalence to EPO, rationale for reticulocyte assay doses); format: cell-based; details: in vitro proliferation assay data suggests
[2] = system: human peripheral blood mononuclear cells; test: Colony assay on a human peripheral blood specimen; format: cell-based
Procedure: G. Colony Assay: Murine Bone Marrow and Human Peripheml Blood Colony Assay
A ten milliliter sample of peripheral blood was obtained from a healthy individual in a standard sterile heparin vacutainer tube. Murine bone marrow was obtained from the femurs of approximately 10 mice per experiment. All reagents were obtained from Stem Cell Technologies Inc. (Vancouver, Canada).
a. Experimental Protocol: Briefly, a nucleated cell count was performed to establish the number and concentration of nucleated cells in the original sample. In the case of peripheral blood, the sample is subjected to centrifugation through a Ficoll-Hypaque (1.077 g per ml) gradient at 400 g for 30 minutes at room temperature. Mononuclear cells at the interface of the Ficoll-Hypaque solution are carefully removed and diluted to a total volume of about 10 ml. The cells obtained from murine bone marrow or human peripheral blood were collected by centrifugation and the supernatant was decanted. The pelleted cells were resuspended in fresh medium and subjected to collection as described above. The washed cells were diluted in Iscove's medium/2% fetal bovine serum to the following concentration for plating:
Normal blood: 4×10^5 light density cells
Cells were added to methyl cellulose per directions of the manufacturer. […] Equivalent cell numbers were plated in "Complete" methylcellulose medium to assess maximal colony formation. A control plate was run with each assay minus EPO and peptide to determine background colony formation. Colonies were scored after both 10 days and 18 days of incubation.

[3] = target: T1, murine receptor (FDC-P1/ER cells) (Mus musculus, UniProt P14753); details: IA = inactive
T1 sequence (P14753 25-507): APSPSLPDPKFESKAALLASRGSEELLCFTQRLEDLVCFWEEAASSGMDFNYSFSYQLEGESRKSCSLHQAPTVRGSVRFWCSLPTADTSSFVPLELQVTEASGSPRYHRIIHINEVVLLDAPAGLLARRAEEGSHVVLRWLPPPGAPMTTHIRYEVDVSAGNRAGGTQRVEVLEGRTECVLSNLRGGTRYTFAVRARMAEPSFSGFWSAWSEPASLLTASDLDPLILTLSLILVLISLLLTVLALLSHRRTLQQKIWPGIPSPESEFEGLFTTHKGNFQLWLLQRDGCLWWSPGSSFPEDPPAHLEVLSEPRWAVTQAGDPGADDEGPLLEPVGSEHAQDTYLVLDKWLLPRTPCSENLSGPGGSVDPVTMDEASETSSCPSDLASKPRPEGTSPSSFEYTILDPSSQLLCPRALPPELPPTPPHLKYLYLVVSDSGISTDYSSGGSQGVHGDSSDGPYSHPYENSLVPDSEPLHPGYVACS

[4] = system: polycythemic exhypoxic mice (59Fe incorporation); test: Polycythemic exhypoxic mouse bioassay; format: in vivo; details: for LOG MEAN: subcutaneous
Procedure: J. Polycythemic Exhypoxic Mouse Bioassay
Female BDF1 mice (18-20 gms) are subjected to a conditioning cycle (in hypobaric chambers) of 18 hrs. at 0.40±0.02 atm. and 6 hrs. at ambient pressure for a period of 14 days.
Mice are maintained at ambient pressure for 72 hrs prior to administration of r-HuEPO or test samples. Test samples or r-HuEPO standard are diluted for injection into conditioned mice. The vehicle consists of: PBS containing 0.1% BSA (w/v). For each dilution, 0.5 ml is administered subcutaneously into each of 10 mice. ^59 Fe is administered 48 hrs. later. Blood samples are taken 48 hrs. following administration of ^59 Fe. Hematocrits and radioactivity measurements are determined for each sample. Dose range and results (two different assays) are set forth in Table 22 and FIGS. 17A-17C, infra.

[5] = target: T2, extracellular domain of the human erythropoietin receptor (EPO binding protein, EBP) (Homo sapiens, UniProt P19235); test: Immobilized EBP based [125I]EPO competition binding assay; details: IC50 relative to RWJ61233 (IC50 5 μM); cyclic peptides, COOH terminal amides
T2 construct: made in house
T2 sequence (P19235 25-250 limits assumed): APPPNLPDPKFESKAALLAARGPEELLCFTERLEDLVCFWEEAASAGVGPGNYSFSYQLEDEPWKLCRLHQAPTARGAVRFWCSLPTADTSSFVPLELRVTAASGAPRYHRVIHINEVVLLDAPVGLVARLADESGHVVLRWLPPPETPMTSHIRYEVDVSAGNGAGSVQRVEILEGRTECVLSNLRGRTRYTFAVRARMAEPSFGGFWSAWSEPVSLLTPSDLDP

In the case of `CC(C)C[C@@H]1NC(=O)[C@@H]2CCCN2C(=O)CNC(=O)[C@H](Cc2ccccc2)NC(=O)[C@H](Cc2c[nH]cn2)NC(=O)[C@@H](NC(=O)[C@H](CO)NC(=O)[C@H](Cc2ccc(O)cc2)NC(=O)[C@@H](NC(=O)CNC(=O)CN)[C@@H](C)O)CSSC[C@@H](C(=O)N[C@@H](CCCCN)C(=O)N2CCC[C@H]2C(=O)N[C@@H](CCC(N)=O)C(=O)NCC(=O)NCC(N)=O)NC(=O)[C@H](C(C)C)NC(=O)[C@H](Cc2c[nH]c3ccccc23)NC(=O)[C@H]([C@@H](C)O)NC1=O` [RWJ 61233] (HELM PEPTIDE1{G.G.T.Y.S.C.H.F.G.P.L.T.W.V.C.K.P.Q.G.G.[am]}$PEPTIDE1,PEPTIDE1,6:R3-15:R3$$$V2.0), the “amount equivalent to 0.4 Units of EPO” value [1] is reported as 2 µg, the CFU-E ([2]; scored 2/23/94, 10^-5 M) is reported as 10 and the MBFU-E ([2]; scored 2/23/94, 10^-5 M) is reported as 5. It also gave a CFU-E ([2]; scored 2/23/94, 10^-6 M) of 11, an MBFU-E ([2]; scored 2/23/94, 10^-6 M) of 5 and a CFU-E ([2]; scored 3/4/94, 10^-5 M) of 7. For the same molecule, the CFU-GM ([2]; scored 3/4/94, 10^-5 M) was 4, the MBFU-E ([2]; scored 3/4/94, 10^-5 M) was 9 and the PBFU-E ([2]; scored 3/4/94, 10^-5 M) was 2. For the same molecule, the CFU-E ([2]; scored 3/4/94, 10^-6 M) was 6, the CFU-GM ([2]; scored 3/4/94, 10^-6 M) was 2 and the MBFU-E ([2]; scored 3/4/94, 10^-6 M) was 11. For the same molecule, the PBFU-E ([2]; scored 3/4/94, 10^-6 M) was 1, the “EPO-ED50” value ([3]; Tables 17-19, amount for half maximal level of EPO dependent proliferation) was 0.1 µM and the “EPO-ED50 (μM)* murine receptor” value ([3]; Tables 20-21) was 0.1 µM. The “Amount of Peptide Equivalent to 0.025 units of EPO” value ([4]; approximate equivalency, Table 23) was 3.8 nmol, the “LOG MEAN” value ([4]; dose 0.25 μg) was 0.62 and the “LOG MEAN” value ([4]; dose 0.50 μg) was 0.76. For the same molecule, the “LOG MEAN” value ([4]; dose 1.00 μg) was 0.92, the “amount equivalent to 1 U rHuEPO (8.3 ng)” value ([4]; footnote of Table 22) was about 0.1 mg and the “Relative Binding” value [5] was 1.
